The values below come from the supplement of paper PMC4604168 (melanoma cell lines).

Among the test systems are WM115; WM1716; WM1745; WM3526; WM3619; WM451Lu.
Assay in all cases: cell count relative to DMSO control; melanoma cells; higher = more viable cells
Holding throughout (conditions): library dose: low library concentration; 72 h

The structures appear in SMILES notation. Some of the results follow. Single values are uncertain, as repeats are few or missing.
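Further: cell number obtained by counting DAPI-stained nuclei in high-throughput microscope images with image analysis software, screen run in 1,536-well plates.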

In the case of `CS(=O)(=O)c1ccc(C(=O)Nc2ccc(Cl)c(-c3ccccn3)c2)c(Cl)c1` [vismodegib] + CN(c1ncccc1CNc1nc(Nc2ccc3c(c2)CC(=O)N3)ncc1C(F)(F)F)S(C)(=O)=O [PF562271] (first compound 1 µM, partner dose 0.08 µM), the cell count is 80.1% in the experiment on WM115; 90.2% in the experiment on WM1716; 84.7% in the experiment with WM1745; 104% in the experiment on WM3526; 103% with WM3619; 69.3% in the experiment on WM451Lu.
As for `CCCS(=O)(=O)Nc1ccc(F)c(C(=O)c2c[nH]c3ncc(Cl)cc23)c1F` + Clc1ccc(Nc2nnc(Cc3ccncc3)c3ccccc23)cc1 [vatalanib] (first compound 0.08 µM, partner dose 2 µM), the cell count in the experiment with WM115 is 90.2%; in the experiment with WM1716, 119%; with WM1745, 76.4%; in the experiment with WM3526 it was 81.7%; in the experiment on WM3619, 74.7%; in the experiment with WM451Lu, 104%.
Regarding `CS(=O)(=O)c1ccc(C(=O)Nc2ccc(Cl)c(-c3ccccn3)c2)c(Cl)c1` [vismodegib] + COc1ccc(Cl)c(Nc2nc3ccccc3nc2NS(=O)(=O)c2cccc(NC(=O)C(C)(C)N)c2)c1 [XL147] (first compound 1 µM, partner dose 0.8 µM), the cell count in the experiment with WM115 worked out at 100%; in the experiment with WM1716, 95.6%; in the experiment on WM1745 it was 103%; in the experiment on WM3526, 89%; with WM3619, 87.2%; in the experiment on WM451Lu, 109%.
Regarding `NC1(c2ccc(-c3nc4ccn5c(=O)[nH]nc5c4cc3-c3ccccc3)cc2)CCC1` + Cn1c(=O)n(-c2ccc(C(C)(C)C#N)cc2)c2c3cc(-c4cnc5ccccc5c4)ccc3ncc21 [NVP-BEZ235] (first compound 0.4 µM, partner dose 0.004 µM), the cell count with WM115 was found to be 66%; with WM1716 it was 74.8%; in the experiment on WM1745 it was 95.8%; in the experiment on WM3526, 65.8%; in the experiment with WM3619 it was 69.4%; in the experiment with WM451Lu it was 84.2%.
Turning to `CS(=O)(=O)c1ccc(C(=O)Nc2ccc(Cl)c(-c3ccccn3)c2)c(Cl)c1` [vismodegib] + NC1(c2ccc(-c3nc4ccn5c(=O)[nH]nc5c4cc3-c3ccccc3)cc2)CCC1 [MK2206] (first compound 1 µM, partner dose 0.4 µM), the cell count in the experiment with WM115 is 76%; with WM1716, 91.5%; in the experiment with WM1745, 110%; with WM3526 it was 69.7%; in the experiment on WM3619, 82.2%; in the experiment on WM451Lu, 107%.
Take `C=C(c1ccc(C(=O)O)cc1)c1cc2c(cc1C)C(C)(C)CCC2(C)C` [Bexarotene] + CC(=O)c1c(C)c2cnc(Nc3ccc(N4CCNCC4)cn3)nc2n(C2CCCC2)c1=O [palbociclib] (first compound 2 µM, partner dose 0.04 µM): the cell count is 85.6% in the experiment on WM115; 75.3% in the experiment on WM1716; 76.9% with WM1745; 57.6% with WM3526; 82.4% in the experiment with WM3619; 59.2% in the experiment on WM451Lu.
Take `CN(c1ncccc1CNc1nc(Nc2ccc3c(c2)CC(=O)N3)ncc1C(F)(F)F)S(C)(=O)=O` + O=C(O)C(=O)Nc1sc2c(c1C(=O)O)CCNC2 [TCS401] (first compound 0.08 µM, partner dose 1.66667 µM): the cell count in the experiment with WM115 was found to be 84%; in the experiment on WM1716, 89.8%; in the experiment on WM1745 it was 66.3%; in the experiment on WM3526, 109%; in the experiment on WM3619, 97.9%; with WM451Lu, 80.5%.
For the compound `CS(=O)(=O)c1ccc(C(=O)Nc2ccc(Cl)c(-c3ccccn3)c2)c(Cl)c1` [vismodegib] + O=C(O)[C@@H]1[O][Sb](=[O])([O][Sb]2(=[O])[O][C@H]([C@H](O)CO)[C@H](O)[C@H](C(=O)O)[O]2)[O][C@H]([C@H](O)CO)[C@@H]1O [stibogluconate] (first compound 1 µM, partner dose 2 µM), the cell count came to 108% in the experiment on WM115; 108% with WM1716; 90.7% in the experiment with WM1745; 117% with WM3526; 92.4% in the experiment with WM3619; 95.8% in the experiment with WM451Lu.
Take `CS(=O)(=O)c1ccc(C(=O)Nc2ccc(Cl)c(-c3ccccn3)c2)c(Cl)c1` [vismodegib] + CS(=O)(=O)CCNCc1ccc(-c2ccc3ncnc(Nc4ccc(OCc5cccc(F)c5)c(Cl)c4)c3c2)o1 [lapatinib] (first compound 1 µM, partner dose 0.8 µM): the cell count with WM115 came to 105%; in the experiment on WM1716, 116%; with WM1745, 96.6%; with WM3526 it was 87.3%; with WM3619, 93.5%; in the experiment on WM451Lu, 102%.
With `CCCS(=O)(=O)Nc1ccc(F)c(C(=O)c2c[nH]c3ncc(Cl)cc23)c1F` + COC(=O)c1sccc1S(=O)(=O)Nc1ccc(Nc2ccccc2)cc1OC [GSK0660] (first compound 0.08 µM, partner dose 1 µM), the cell count worked out at 87.8% in the experiment with WM115; 126% in the experiment with WM1716; 80.2% with WM1745; 60.3% in the experiment on WM3526; 95.4% in the experiment with WM3619; 103% with WM451Lu.
Consider `CS(=O)(=O)c1ccc(C(=O)Nc2ccc(Cl)c(-c3ccccn3)c2)c(Cl)c1` [vismodegib] + N#Cc1c(O)c2c(-c3ccc(-c4ccccc4O)cc3)csc2[nH]c1=O [A769662] (first compound 1 µM, partner dose 2 µM), for which the cell count was 94.2% in the experiment on WM115; 99.1% with WM1716; 115% in the experiment on WM1745; 93.7% in the experiment with WM3526; 102% in the experiment with WM3619; 115% in the experiment with WM451Lu.
Regarding `CS(=O)(=O)c1ccc(C(=O)Nc2ccc(Cl)c(-c3ccccn3)c2)c(Cl)c1` [vismodegib] + Cc1cc(Nc2cc(N3CCN(C)CC3)nc(/C=C/c3ccccc3)n2)n[nH]1 [ENMD2076] (first compound 1 µM, partner dose 0.04 µM), the cell count with WM115 was determined as 102%; in the experiment with WM1716 it was 87.9%; in the experiment with WM1745, 85.6%; with WM3526, 79.6%; with WM3619, 87.9%; in the experiment with WM451Lu it was 91.1%.
Take `NC1(c2ccc(-c3nc4ccn5c(=O)[nH]nc5c4cc3-c3ccccc3)cc2)CCC1` + CCCCCCCCCCCC1=C(O)C(=O)C=C(O)C1=O [Embelin] (first compound 0.4 µM, partner dose 1.2 µM): the cell count is 81% in the experiment on WM115; 107% in the experiment on WM1716; 83.8% in the experiment on WM1745; 69.3% in the experiment with WM3526; 95.1% in the experiment with WM3619; 92.2% in the experiment on WM451Lu.
As to `CCCS(=O)(=O)Nc1ccc(F)c(C(=O)c2c[nH]c3ncc(Cl)cc23)c1F` + C[C@]1(c2nc3c(C(N)=O)cccc3[nH]2)CCCN1 [Veliparib] (first compound 0.08 µM, partner dose 1.4 µM), the cell count turned out to be 79.4% with WM115; 103% in the experiment on WM1716; 85.7% in the experiment on WM1745; 78.1% with WM3526; 90.3% in the experiment on WM3619; 83.2% with WM451Lu.
As to `CS(=O)(=O)c1ccc(C(=O)Nc2ccc(Cl)c(-c3ccccn3)c2)c(Cl)c1` [vismodegib] + C#Cc1cccc(Nc2ncnc3cc(OCCOC)c(OCCOC)cc23)c1 [erlotinib] (first compound 1 µM, partner dose 0.8 µM), the cell count in the experiment with WM115 came to 105%; in the experiment with WM1716, 96.9%; with WM1745, 85.8%; with WM3526, 91.6%; with WM3619, 118%; in the experiment with WM451Lu, 93.6%.
As to `CS(=O)(=O)c1ccc(C(=O)Nc2ccc(Cl)c(-c3ccccn3)c2)c(Cl)c1` [vismodegib] + O=C(Nc1ccccc1)c1cc([N+](=O)[O-])ccc1Cl [GW9662] (first compound 1 µM, partner dose 2 µM), the cell count in the experiment on WM115 came out at 103%; with WM1716, 102%; in the experiment on WM1745, 108%; with WM3526, 112%; with WM3619 it was 62%; in the experiment with WM451Lu it was 94.7%.
Turning to `CCCS(=O)(=O)Nc1ccc(F)c(C(=O)c2c[nH]c3ncc(Cl)cc23)c1F` + Cc1nc(Nc2ncc(C(=O)Nc3c(C)cccc3Cl)s2)cc(N2CCN(CCO)CC2)n1 [dasatanib] (first compound 0.08 µM, partner dose 0.004 µM), the cell count in the experiment with WM115 turned out to be 88.3%; in the experiment with WM1716 it was 86.5%; in the experiment on WM1745, 68.9%; with WM3526 it was 74.8%; with WM3619, 81.3%; in the experiment with WM451Lu, 96.5%.
Turning to `CCCS(=O)(=O)Nc1ccc(F)c(C(=O)c2c[nH]c3ncc(Cl)cc23)c1F` + Cn1c(Nc2ccc(C(F)(F)F)cc2)nc2cc(Oc3ccnc(-c4ncc(C(F)(F)F)[nH]4)c3)ccc21 [CHIR265] (first compound 0.08 µM, partner dose 0.08 µM), the cell count turned out to be 64.9% with WM115; 96.4% in the experiment on WM1716; 72.7% in the experiment with WM1745; 51.2% in the experiment on WM3526; 87.7% in the experiment on WM3619; 90.1% with WM451Lu.
Take `CCCS(=O)(=O)Nc1ccc(F)c(C(=O)c2c[nH]c3ncc(Cl)cc23)c1F` + O=c1cc(-c2cccc3c2Sc2ccccc2S3)oc(N2CCOCC2)c1 [KU55933] (first compound 0.08 µM, partner dose 1 µM): the cell count turned out to be 80.3% in the experiment on WM115; 110% with WM1716; 96.3% with WM1745; 63.1% in the experiment on WM3526; 71.8% in the experiment on WM3619; 97% with WM451Lu.
Take `NC1(c2ccc(-c3nc4ccn5c(=O)[nH]nc5c4cc3-c3ccccc3)cc2)CCC1` + O=C(Nc1cccc(Cl)c1)Nc1ncc(CCNc2ncnc3ccsc23)s1 [SNS314] (first compound 0.4 µM, partner dose 0.0008 µM): the cell count in the experiment on WM115 was 58%; with WM1716, 114%; in the experiment with WM1745, 93.4%; in the experiment on WM3526, 78.9%; in the experiment with WM3619 it was 101%; in the experiment with WM451Lu, 91%.
`CCCS(=O)(=O)Nc1ccc(F)c(C(=O)c2c[nH]c3ncc(Cl)cc23)c1F` + COCC[n+]1c2c(n(Cc3cnccn3)c1C)C(=O)c1ccccc1C2=O [YM155] (first compound 0.08 µM, partner dose 0.0004 µM): the cell count stood at 104% in the experiment on WM115; 121% in the experiment with WM1716; 78.2% in the experiment on WM1745; 65.5% with WM3526; 76.3% in the experiment with WM3619; 73.3% with WM451Lu.
As for `CN(c1ncccc1CNc1nc(Nc2ccc3c(c2)CC(=O)N3)ncc1C(F)(F)F)S(C)(=O)=O` + Nc1ncn([C@H]2C[C@H](O)[C@@H](CO)O2)c(=O)n1 [decitabine] (first compound 0.08 µM, partner dose 0.1 µM), the cell count in the experiment on WM115 stood at 76.4%; with WM1716, 70.7%; with WM1745, 72.7%; with WM3526, 113%; with WM3619, 93.8%; in the experiment with WM451Lu, 76.5%.
Take `CS(=O)(=O)c1ccc(C(=O)Nc2ccc(Cl)c(-c3ccccn3)c2)c(Cl)c1` [vismodegib] + CC(=O)c1c(C)c2cnc(Nc3ccc(N4CCNCC4)cn3)nc2n(C2CCCC2)c1=O [palbociclib] (first compound 1 µM, partner dose 0.04 µM): the cell count with WM115 worked out at 91.2%; in the experiment on WM1716, 87.1%; in the experiment on WM1745, 87.9%; in the experiment with WM3526, 81.1%; with WM3619, 107%; with WM451Lu, 73.3%.
Take `CCCS(=O)(=O)Nc1ccc(F)c(C(=O)c2c[nH]c3ncc(Cl)cc23)c1F` + CN(C)S(=O)(=O)c1ccc2c(c1)/C(=C/c1cc3c([nH]1)CCCC3)C(=O)N2 [SU6656] (first compound 0.08 µM, partner dose 0.4 µM): the cell count with WM115 came out at 79.7%; with WM1716, 104%; in the experiment with WM1745 it was 79%; in the experiment with WM3526, 66.9%; in the experiment with WM3619 it was 112%; in the experiment on WM451Lu it was 93.6%.
For `NC1(c2ccc(-c3nc4ccn5c(=O)[nH]nc5c4cc3-c3ccccc3)cc2)CCC1` + C[C@@H]1CCN(C(=O)CC#N)C[C@@H]1N(C)c1ncnc2[nH]ccc12 [CP690550] (first compound 0.4 µM, partner dose 1 µM), the cell count in the experiment on WM115 was determined as 62.8%; in the experiment on WM1716, 96.4%; with WM1745, 80.7%; in the experiment with WM3526, 56.6%; with WM3619, 75.7%; with WM451Lu, 49.8%.
